According to patent publication US20040121959A1:

Molecular target: nerve growth factor (NGF) (human or rat) (UniProt P01138)
Assay: cell-based or functional assay

Chain of UniProt P01138 (P01138 122-241 limits assumed): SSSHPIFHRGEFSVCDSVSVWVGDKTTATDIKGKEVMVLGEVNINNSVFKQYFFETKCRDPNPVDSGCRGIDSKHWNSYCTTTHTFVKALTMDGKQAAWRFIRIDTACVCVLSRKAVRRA

| Binder | concentration for 50% inhibition of NGF induced activity, DRG neutralization assay |
| --- | --- |
| [… human IgG1 Fc …]GGGGGAQPTDQLGDWMLNYFRLVPPGT (Fc fusion) [matured modified peptide: Fc-(L SEQ ID NO: 285)-(P SEQ ID NO: 202), C-term] | < 20 nM |
| [… human IgG1 Fc …]GGGGGAQLQALLRELPLYEQFFRLMPPGYLE (Fc fusion) [matured modified peptide: Fc-(L SEQ ID NO: 285)-(P SEQ ID NO: 205), C-term] | > 20 nM |
| [… human IgG1 Fc …]GGGGGAQVTNILSQLPLWQQWLGLMPPGVLE (Fc fusion) [matured modified peptide: Fc-(L SEQ ID NO: 285)-(P SEQ ID NO: 206), C-term] | > 20 nM |
| [… human IgG1 Fc …]GGGGGQPTDQLGDWMLNYFRLVPPGTLE (Fc fusion) [matured modified peptide: Fc-(L SEQ ID NO: 285)-(P SEQ ID NO: 211), C-term] | < 20 nM |
| [… human IgG1 Fc …]GGGGGAQLADLLAQLPMWEQYLGLTPPSSLE (Fc fusion) [matured modified peptide: Fc-(L SEQ ID NO: 285)-(P SEQ ID NO: 212), C-term] | > 20 nM |
| [… human IgG1 Fc …]GGGGGAQLRELLSDLPMWEQYFRLMPPGYLE (Fc fusion) [matured modified peptide: Fc-(L SEQ ID NO: 285)-(P SEQ ID NO: 213), C-term] | > 20 nM |
| [… human IgG1 Fc …]GGGGGAEQSQKLQCEFSTSGCPDLPQMLE (Fc fusion) [matured modified peptide: Fc-(L SEQ ID NO: 285)-(P SEQ ID NO: 216), C-term] | < 20 nM |
| [… human IgG1 Fc …]GGGGGAQPTDQLGDWMLNYFRLVPPGTLE (Fc fusion) [matured modified peptide: Fc-(L SEQ ID NO: 285)-(P SEQ ID NO: 219), C-term] | < 20 nM |
| [… human IgG1 Fc …]GGGGGPTDQLGDWMLNYFRLVPPGT (Fc fusion) [matured modified peptide: Fc-(L SEQ ID NO: 285)-(P SEQ ID NO: 221), C-term] | < 20 nM |
| [… human IgG1 Fc …]GGGGGAQQSQKLQCEFSTSGCPDLPLQLE (Fc fusion) [matured modified peptide: Fc-(L SEQ ID NO: 285)-(P SEQ ID NO: 224), C-term] | < 20 nM |
| [… human IgG1 Fc …]GGGGGAQQTEWLWSLPLVEQYFSLVPPGYLE (Fc fusion) [matured modified peptide: Fc-(L SEQ ID NO: 285)-(P SEQ ID NO: 225), C-term] | > 20 nM |
| [… human IgG1 Fc …]GGGGGAQTQEWMMNLPLVEQYFGLTPPGMLE (Fc fusion) [matured modified peptide: Fc-(L SEQ ID NO: 285)-(P SEQ ID NO: 226), C-term] | > 20 nM |
| [… human IgG1 Fc …]GGGGGAQQGMWPGAMSLLEQYFALTPPGLLE (Fc fusion) [matured modified peptide: Fc-(L SEQ ID NO: 285)-(P SEQ ID NO: 230), C-term] | < 20 nM |
| [… human IgG1 Fc …]GGGGGAQQSQKLQCEFSTSGCPDLPLMLE (Fc fusion) [matured modified peptide: Fc-(L SEQ ID NO: 285)-(P SEQ ID NO: 235), C-term] | < 20 nM |
| [… human IgG1 Fc …]GGGGGAQNPGHLLDLPLFYQYFQLMPPGILE (Fc fusion) [matured modified peptide: Fc-(L SEQ ID NO: 285)-(P SEQ ID NO: 236), C-term] | < 20 nM |

Results, then the binder that gave them:

| concentration for 50% inhibition of NGF induced activity, DRG neutralization assay | Binder |
| --- | --- |
| < 20 nM | [… human IgG1 Fc …]GGGGGAQNGDWMRGLPFLEQYFQLLPPGVLE (Fc fusion) [matured modified peptide: Fc-(L SEQ ID NO: 285)-(P SEQ ID NO: 271), C-term] |
| < 20 nM | [… human IgG1 Fc …]GGGGGAQPTDQLGDWMLNYFRLVPPGTL (Fc fusion) [matured modified peptide: Fc-(L SEQ ID NO: 285)-(P SEQ ID NO: 272), C-term] |
| < 20 nM | [… human IgG1 Fc …]GGGGGAQQQQKLQCEFSTSGCPDLPLMLE (Fc fusion) [matured modified peptide: Fc-(L SEQ ID NO: 285)-(P SEQ ID NO: 279), C-term] |
| < 20 nM | [… human IgG1 Fc …]GGGGGAQQSQKLQCEFSTSGCPDLPQMLE (Fc fusion) [matured modified peptide: Fc-(L SEQ ID NO: 285)-(P SEQ ID NO: 280), C-term] |
| < 20 nM | [… human IgG1 Fc …]GGGGGGGMIDWLSQNRLFEQYFELIPPG (Fc fusion) [matured modified peptide: Fc-(L SEQ ID NO: 286)-(P SEQ ID NO: 210), C-term] |
| < 20 nM | [… human IgG1 Fc …]GGGGGGGPTDQLGDWMLNYFRLVPPG (Fc fusion) [matured modified peptide: Fc-(L SEQ ID NO: 286)-(P SEQ ID NO: 227), C-term] |
| < 20 nM | [… human IgG1 Fc …]GGGGGGGDQLGDWMLNYFRLVPPGT (Fc fusion) [matured modified peptide: Fc-(L SEQ ID NO: 286)-(P SEQ ID NO: 231), C-term] |
| < 20 nM | [… human IgG1 Fc …]GGGGGPTDQLGDWMLNYFRLVPPGTLE (Fc fusion) [matured modified peptide: Fc-(L SEQ ID NO: 285)-(P SEQ ID NO: 237), C-term] |
| > 20 nM | [… human IgG1 Fc …]GGGGGQTDWRWDLPFVEDYFRLRPPGV (Fc fusion) [matured modified peptide: Fc-(L SEQ ID NO: 285)-(P SEQ ID NO: 238), C-term] |
| < 20 nM | [… human IgG1 Fc …]GGGGGAQMIDWLSQNRLFEQYFELIPPGVLE (Fc fusion) [matured modified peptide: Fc-(L SEQ ID NO: 285)-(P SEQ ID NO: 239), C-term] |
| < 20 nM | [… human IgG1 Fc …]GGGGGAQQSQKLQCEFSTSGCPDLPQQLE (Fc fusion) [matured modified peptide: Fc-(L SEQ ID NO: 285)-(P SEQ ID NO: 241), C-term] |
| > 20 nM | [… human IgG1 Fc …]GGGGGAQAREWQTELPFFEQYFALMPPGVLE (Fc fusion) [matured modified peptide: Fc-(L SEQ ID NO: 285)-(P SEQ ID NO: 250), C-term] |
| < 20 nM | [… human IgG1 Fc …]GGGGGQTDWLSDLPLLEQYFRLMPPGV (Fc fusion) [matured modified peptide: Fc-(L SEQ ID NO: 285)-(P SEQ ID NO: 251), C-term] |
| > 20 nM | [… human IgG1 Fc …]GGGGGAQLTDQLRLLPLYLQYFSLIPPVTLE (Fc fusion) [matured modified peptide: Fc-(L SEQ ID NO: 285)-(P SEQ ID NO: 253), C-term] |
| > 20 nM | [… human IgG1 Fc …]GGGGGAQMQELLRELPLYEQYMALMPPGMLE (Fc fusion) [matured modified peptide: Fc-(L SEQ ID NO: 285)-(P SEQ ID NO: 258), C-term] |
| < 20 nM | [… human IgG1 Fc …]GGGGGAQQQQKLQCEFSTSGCPDLPLMLE (Fc fusion) [matured modified peptide: Fc-(L SEQ ID NO: 285)-(P SEQ ID NO: 259), C-term] |
| > 20 nM | [… human IgG1 Fc …]GGGGGAQQTNWCMGIPYCEQYFGLSPHGILE (Fc fusion) [matured modified peptide: Fc-(L SEQ ID NO: 285)-(P SEQ ID NO: 260), C-term] |
| > 20 nM | [… human IgG1 Fc …]GGGGGAQLAEWLQQIPLYEQYFGLMPPDLLE (Fc fusion) [matured modified peptide: Fc-(L SEQ ID NO: 285)-(P SEQ ID NO: 262), C-term] |
| > 20 nM | [… human IgG1 Fc …]GGGGGAEVEWQWCWFTEEGCPLPLRLE (Fc fusion) [matured modified peptide: Fc-(L SEQ ID NO: 285)-(P SEQ ID NO: 265), C-term] |
